Results reported in the supplement of paper PMC11383711.
This is one part of the list. Binding of human antibodies (heavy:light variable regions, tested as scFv in one mRNA-display pool) to influenza hemagglutinin, with or without the stem antibody CR9114 bound first. Score = (mean enrichment − median) / interquartile range of that screen; higher = more enriched, 0 = typical non-binder. Active = above the paper's cut-off per screen: stems 28; unblocked H1 Solomon Islands 5, H1 Michigan 3, H3 5, H5 19, H7 2.85, both B 5; blocked 9, 7, H5 10, H7 10, B Phuket 10, B Lee 11.5. Scores are scaled within each screen and are no affinities; replicates correlate at about 0.6 to 0.9, and antibodies rare in the pool are noisier.

B1: antibody 4G04 (protein)
chain 1: VQLVESGGAVVQPGRSLRLSCTASGFIFSRFAIHWVRQAPGKALEWVAVISDDASKEDYADSVKGRFIISRDNSKSTLYLQMNSLTTEDTAVYYCARDPTHSGDIISWFFDSWGQGILVTVSS
chain 2: SYELTQPPSVSVSPGQTANITCSGDKLGDKYTSWYQQKSGQSPVLVIYHDTRRPSGIPERFSGSSSGNTATLTISGTQVMDEADYYCQAWVWDSYVVFGGGTKLTVL
B2: antibody 2G02 (protein)
chain 1: EVQLVESGGGLVQPGRSLRLSCAASGFTFDDYTMHWVRQAPGRGLEWVSSINWVSSTVGYADSVKGRFTISRDNAKNSLYLQMNSLRPEDTALYYCARDRRTDATMDYYFYSAMDVWGRGTTVTVSS
chain 2: DIQMTQSPSSLSASVGDRVTITCQASQDISKYLNWYQQKPGKAPKLLIYDASTLETGVPSRFSGSASGTDFTFTISNLQPEDIATYYCQQYDNLPITFGQGTRLEIK
B3: C7-3-C02 (protein)
chain 1: QVQLQESGPGLVKPSETLSLTCNVSGDSVSSGNYYWSWIRQPPGKALEWIGYIYNRGRTKYNSALKSRVTISEDTANNQFSLRLTSVTAADTAIYYCARDNVVSLGRFGEFALYIDYWGRGTLVTVS
chain 2: DIQMTQSPSSLSASVGDRVTITCRASQSINTYLNWYQQKPGAAPKLLIYGASTLQSGVPSRFSGGGSGTDFTLTISSLQPDDFATYHCQQSYGIPLTFGQGTRLEIK
B4: R95-2H10 (protein)
chain 1: EVQLVASGGALGQPDRSLRLSCAASGFIFEEYALHWVRQAPGKGLEWVSNVSWNSGYRAYADSVKGRFTISRDNAEKSLSLQMNSVRREDTAFYYCAKDRAGHLGSGSYFDSWGQGTLVTVSS
chain 2: SYELTQPPSVSVAPGQTARIPCGGNNIGSKSVHWYQQKPGQAPVLVVYDDSDRPSGIPERFSGSNSGNTATLTISRVEAGDEADYYCQVWDGYSDPLFVFGTGTKV
B5: antibody 3G04 (protein)
chain 1: VQLVESGGAVVQPGRSLRVSCAASGFNFRTYGMYWVRQAPGKGLEWVALISYDGDKKFYADFAKGRFTISRDNSKNRFYLQMNSLQSDDTAMYYCAKDGPRGGGSGSLAHWGQGTLVTVSS
chain 2: VSASPGHKITISCSGSGPNIGTNRVSWYQQFPGTVPRPLIYDDYLRPSGIPERFSGSKSGTSATLDITELQTGDEADYYCGTWDSSLSVWVFGGGTKLTVL
B6: C1-2-B02 (protein)
chain 1: VQLVQSGAELKKPGASVKVSCKASGYTFTDYYLHWVRQAPGQGLEWMGWIKPNFGGTIYAQKFQGRVTVTSDTSINTAYMELSRLTSDDTAVYYCARAVYYDLTSDFCVDCYDAFDVWGQGTMVTVSS
chain 2: DIQLTQSPSFLSAFVGDRVTITCRASQGISTYLAWYQQKPGKAPKLLIYAASILQSGVPSRFRGSGSGTEFTLTISSLQPEDFATYYCQQLNSYVVTFGQGTKVEIK

Target: Influenza A H1N1 A/Michigan/45/2015 hemagglutinin ectodomain
Assay: mRNA display binding score; higher = more enriched on the antigen
Details: antigen blocked with: 2 µM CR9114 IgG
Method: (§1)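 A pool of natively paired antibodies, displayed as scFv on mRNA, was selected once on antigen-coated beads and sequenced before and after; two replicates.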

| Binder | mRNA display binding score |
| --- | --- |
| B1 | inactive: 0.273 |
| B2 | inactive: 0.576 |
| B3 | active: 32.9 |
| B4 | inactive: -0.486 |
| B5 | inactive: -0.173 |
| B6 | inactive: -0.124 |

Same assay, conditions: antigen blocked with: nothing

| Binder | mRNA display binding score |
| --- | --- |
| B1 | inactive: -0.117 |
| B2 | inactive: -0.445 |
| B3 | inactive: 0.794 |
| B4 | inactive: -0.449 |
| B5 | inactive: -0.163 |
| B6 | inactive: 0 |

Target: Influenza A H1N1 A/Solomon Islands/3/2006 hemagglutinin ectodomain
Assay: as above
Details: antigen blocked with: 2 µM CR9114 IgG
Method: as §1

| Binder | mRNA display binding score |
| --- | --- |
| B1 | inactive: -0.132 |
| B2 | inactive: 0.89 |
| B3 | inactive: 4.76 |
| B4 | inactive: -0.534 |
| B5 | inactive: -0.382 |
| B6 | inactive: 0.326 |

Same assay, conditions: antigen blocked with: nothing

| Binder | mRNA display binding score |
| --- | --- |
| B1 | inactive: -0.611 |
| B2 | inactive: -0.0203 |
| B3 | inactive: 4 |
| B4 | inactive: -0.415 |
| B5 | inactive: -0.119 |
| B6 | inactive: -0.158 |

Target: Influenza A H3N2 A/Singapore/INFIMH-16-0019/2016 hemagglutinin ectodomain
Assay: as above
Details: antigen blocked with: nothing
Method: as §1

| Binder | mRNA display binding score |
| --- | --- |
| B1 | inactive: -0.369 |
| B2 | inactive: -0.143 |
| B3 | inactive: -0.206 |
| B4 | inactive: 0.101 |
| B5 | inactive: -0.231 |
| B6 | inactive: 0.0274 |

Target: Influenza A H5N1 A/Qinghai/1A/2005 hemagglutinin ectodomain
Assay: as above
Details: antigen blocked with: 2 µM CR9114 IgG
Method: as §1

| Binder | mRNA display binding score |
| --- | --- |
| B1 | inactive: -0.114 |
| B2 | inactive: -0.374 |
| B3 | active: 20.2 |
| B4 | inactive: -0.711 |
| B5 | inactive: -0.294 |
| B6 | inactive: 0.0473 |

Same assay, conditions: antigen blocked with: nothing

| Binder | mRNA display binding score |
| --- | --- |
| B1 | inactive: -0.385 |
| B2 | inactive: 0.69 |
| B3 | inactive: 18.7 |
| B4 | inactive: -0.377 |
| B5 | inactive: 0.0602 |
| B6 | inactive: -0.436 |

Target: Influenza A H7N9 A/Shanghai/2/2013 hemagglutinin ectodomain
Assay: as above
Details: antigen blocked with: 2 µM CR9114 IgG
Method: as §1

| Binder | mRNA display binding score |
| --- | --- |
| B1 | inactive: 0.119 |
| B2 | inactive: -0.884 |
| B3 | inactive: -0.0833 |
| B4 | inactive: -0.412 |
| B5 | inactive: -0.817 |
| B6 | inactive: -0.142 |

Same assay, conditions: antigen blocked with: nothing

| Binder | mRNA display binding score |
| --- | --- |
| B1 | inactive: 0.0513 |
| B2 | inactive: -0.487 |
| B3 | inactive: -0.32 |
| B4 | inactive: -0.492 |
| B5 | inactive: -0.211 |
| B6 | inactive: 0.0656 |

Target: Influenza B/Lee/1940 hemagglutinin ectodomain
Assay: as above
Details: antigen blocked with: 2 µM CR9114 IgG
Method: as §1

| Binder | mRNA display binding score |
| --- | --- |
| B1 | inactive: 0.362 |
| B2 | active: 82.7 |
| B3 | inactive: 1.02 |
| B4 | inactive: -0.296 |
| B5 | inactive: -0.241 |
| B6 | inactive: 3.81 |

Same assay, conditions: antigen blocked with: nothing

| Binder | mRNA display binding score |
| --- | --- |
| B1 | inactive: 0.771 |
| B2 | active: 134 |
| B3 | inactive: -0.211 |
| B4 | inactive: -0.404 |
| B5 | active: 9.55 |
| B6 | inactive: 4.41 |

Target: Influenza B/Phuket/3073/2013 hemagglutinin ectodomain
Assay: as above
Details: antigen blocked with: 2 µM CR9114 IgG
Method: as §1

| Binder | mRNA display binding score |
| --- | --- |
| B1 | inactive: -0.349 |
| B2 | active: 12.9 |
| B3 | inactive: -0.407 |
| B4 | inactive: -0.527 |
| B5 | inactive: 0.177 |
| B6 | inactive: 0.142 |

Same assay, conditions: antigen blocked with: nothing

| Binder | mRNA display binding score |
| --- | --- |
| B1 | inactive: -0.118 |
| B2 | inactive: 4.17 |
| B3 | inactive: -0.013 |
| B4 | inactive: -0.377 |
| B5 | inactive: 1.58 |
| B6 | inactive: -0.0334 |
